These results are taken from PubChem BioAssay AID2060616 (Molecular Pharmacology Branch, DTP, NCI, 2025).

Not every entry of the source has a single result; some have several. This list holds those alone. There may be further records. Values that stand side by side are repeated measurements (runs, samples, wells, individuals or studies). A date in brackets names the month of the test. Some results are limits rather than exact numbers.

This test has as its system 377384-186-R-J1-PDC complex spheroid viability. Description: Anticancer human tumor 377384-186-R-J1-PDC patient-derived pancreatic carcinoma cell line growth inhibition [CLK]. The source says: A high-throughput screen of multi-cell type tumor spheroids was designed to identify active combinations of […] and targeted small molecules. Complex spheroids include a stromal component modeled by human endothelial cells (HUVEC) and fibroblasts modeled by human mesenchymal stem cells (MSCs). The concentration ranges selected for each drug and investigational agent were based upon clinically achievable concentrations if the clinical Cmax of the agent was known.
Compounds. The drugs and investigational agents: cirtuvivint (SM08502; NSC835563), CC-671 (NSC850746), vemurafenib (NSC761431), tapotoclax (NSC804041), sotorasib (NSC818433), adagrasib (NSC831453), MRTX-1133 (NSC836407), BAY2416964 (NSC825713), copanlisib (NSC816437), inavolisib (NSC800729), abemaciclib (NSC768073), osimertinib (NSC779217), entinostat (NSC756642), eltanexor (KPT-8602, NSC794443), venetoclax (NSC766270), ceralasertib (NSC777638), bortezomib (NSC756655), olaparib (NSC753686), talazoparib (NSC767125), alisertib (NSC759677), peposertib (NSC802822), gemcitabine (NSC613327), 5-fluorouracil (NSC19893), SN-38 (NSC673596), oxaliplatin (NSC266046), paclitaxel (NSC125973), and doxorubicin (NSC123127), were obtained from the National Cancer Institute (NCI) Developmental Therapeutics Program Chemical Repository. […] If the clinical Cmax for an agent had not been determined, the highest concentration tested was 10 microM. […]
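Further: spheroids exposed to agents for 7 days before reading.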
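Wherever viability, T/C is given: luminescence signal used as a stand-in for viable cells.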

`CC(Nc1ccc2c(c1)OCCn1cc(N3C(=O)OCC3C(F)F)nc1-2)C(N)=O` (configuration not stated): the half-inhibitory concentration (IC50) (compound alone) was > 10 µM [2023-07] and 718 nM [2023-08].
With `CC1(C)CCC(CN2CCN(c3ccc(C(=O)NS(=O)(=O)c4ccc(NCC5CCOCC5)c([N+](=O)[O-])c4)c(Oc4cnc5[nH]ccc5c4)c3)CC2)=C(c2ccc(Cl)cc2)C1`, where the note is “compound alone 10 µM, stronger effect = lower value”, the viability, T/C was 7.01% [2023-07] and 109% [2023-08].

Usually IC50 stands for the point on the concentration scale where inhibition reaches its midpoint. As a reminder, the viability, T/C is the ratio of treated to control.
